Test results taken from PubChem BioAssay AID1671193 (National Center for Advancing Translational Sciences (NCATS), 2021).
About 180 (0.12%) of roughly 150,000 compounds were called active. The shares of active, inactive and inconclusive entries below differ from those in the screen. Calls come from the whole dose curve; as a rule, active = well fitted cell-killing curve with a large enough effect; inconclusive = small, poorly fitted or top-dose-only effect, or effect the other way; inactive = flat fitted curve, though single readings scatter. Potencies of inconclusive entries are doubtful fits and often do not repeat.

assay: GF-AFC viability counterscreen for inhibitors of alpha-synuclein gene (SNCA) expression; details: HEK-293-SNCA-luc viability, GF-AFC fluorescence, 24 h; activity change, negative = cytotoxicity: at 57.1 µM (top of the series) unless noted; note: nearly all actives have a fitted effect of over 30% in size;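 for activity change, negative = cytotoxicity: 0% = DMSO-treated cells and -100% = medium-only wells without cells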
In short: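 Cytotoxicity counterscreen: after 24 h compound treatment of genome-edited SNCA-luciferase HEK-293 cells, live-cell protease substrate GF-AFC read by fluorescence after 30 min; activity scaled between DMSO (0%) and medium-only (-100%), curves Hill-fitted.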
Potency is the fitted concentration of half-maximal effect; tags give direction and shape of the fitted curve.

| SMILES | Potency | activity change, negative = cytotoxicity |
| --- | --- | --- |
| CCNc1ncc2nc(-c3cn(C)c4ccccc34)c(=O)n(Cc3cccc(OC)c3)c2n1 | inconclusive: 7.08 µM [rising, full curve, poor fit] | – |
| O=C1[C@H](Cc2ccc(O)cc2)N2C(=O)CCN(C(=O)NCc3ccccc3)[C@H]2CN1Cc1cccc2ccccc12 | active: 24.1 µM | – |
| COc1ccc(-c2nc(-c3nnn4c3COC(c3ccc(C)cc3)C4)no2)cc1F (configuration not stated) | inactive | – |
| CCCNC(=O)NCC1c2cc(OC)c(OC)cc2CCN1C(=O)NC(C)C (configuration not stated) | inactive | – |
| COc1ccc(C(=O)Nc2cccc(-c3nnc4n3CCCC4)c2)cc1 | inconclusive: 3.55 µM [cytotoxic, full curve, poor fit] | – |
| COc1ccc(OC)c(CN2CCNc3cc(Nc4ccccc4)ncc3C2)c1 | inconclusive: 1.41 µM [cytotoxic, full curve, poor fit] | – |
| Cc1nc2ccn(Cc3cccnc3)c(=O)c2cc1C(=O)Nc1ccc(F)cc1F | inconclusive: 15.8 µM [rising, partial curve, poor fit] | – |
| CCn1c2ccccc2c2cc(Nc3ccnc(NCCCN4CCOCC4)n3)ccc21 | inconclusive: 37.7 µM [cytotoxic, single point] | – |
| CCOc1ccccc1CN1CCO[C@@H](COC)[C@@H]1c1ccccc1 | inactive | – |
| Cc1nc(-c2ccc(F)cc2)n(CC(=O)Nc2ccc(C(F)(F)F)cc2)c(=O)c1CCO | inconclusive: 22.4 µM [cytotoxic, partial curve, poor fit] | – |
| COc1ccc(C(=O)NCCn2cc(SC(C)c3ccccc3)c3ccccc32)cc1OC (configuration not stated) | inconclusive: 39.8 µM [cytotoxic, single point] | – |
| O=C(Cc1cccs1)N1CCCC(Cc2nncn2CC2CC2)C1 (configuration not stated) | inactive | – |
| O=C(NC1CCN(c2nnc3ccccn23)CC1)c1ccc(Cl)s1 | inconclusive: 2.24 µM [cytotoxic, full curve, poor fit] | – |
| Cc1cc2c(N3CCCC3)nc(N3CCCC3)nc2n1C | inconclusive: 37.7 µM [cytotoxic, single point] | – |
| CC(C)c1nc2c(c(-c3ccc(Cl)cc3)n1)CN(C(=O)c1cccc(Cl)c1)CC2 | inconclusive: 22.4 µM [cytotoxic, partial curve, poor fit] | – |
| CC1=C[C@@H](CNCc2ccc(C#N)cc2)[C@H](C(C)C)C[C@H]1Cc1nnc(C(C)(C)C)o1 | inconclusive: 56.2 µM [cytotoxic, single point] | – |
| COc1ccc(-c2noc(CSc3nnc(-c4ccccc4)n3-c3ccc(F)cc3)n2)c(OC)c1 | inconclusive: 39.8 µM [cytotoxic, single point] | – |
| CCc1ccc(CNC(=O)C2CCCN(c3nn4cc(-c5ccc(F)cc5)nc4s3)C2)cc1 (configuration not stated) | inactive | – |
| O=C(C1CCCC1)N1CC2(CCN(Cc3cccnc3)C2)Cc2ccccc21 (configuration not stated) | inconclusive: 10 µM [cytotoxic, partial curve, poor fit] | – |
| Cc1ccc(S(=O)(=O)N(CC(=O)N2CCc3ccccc3C2)c2ccc(C)c(C)c2)cc1 | inconclusive: 17.8 µM [cytotoxic, partial curve, poor fit] | – |
| COc1ccc(NC(=O)CSc2nnc3scc(-c4ccc(Cl)cc4)n23)cc1 | inconclusive: 10 µM [cytotoxic, partial curve, poor fit] | – |
| CCc1ccc(CNC(=O)C2CCCCC(=O)N2C)cc1 (configuration not stated) | inactive | – |
| COc1ccc(C(=O)NC2CCN(c3cnn(C)c(=O)c3)CC2)c(OC)c1 | inconclusive: 3.16 µM [cytotoxic, full curve] | – |

| SMILES | Potency | activity change, negative = cytotoxicity |
| --- | --- | --- |
| COc1ccc(Cn2c(C3CCN(C(=O)Cc4cccc(OC)c4)CC3)n[nH]c2=O)cc1 | inactive | – |
| Cc1ccc(CSc2oc(-c3ccco3)nc2S(=O)(=O)c2ccc(Br)cc2)cc1 | inconclusive: 1.78 µM [rising, full curve, poor fit] | – |
| O=C(NCc1nnc2ccc(-c3ccccc3)nn12)c1cccc(Cl)c1 | inactive | – |
| CCOCCCNC(=O)c1cc2c(=O)n3ccccc3nc2s1 | inconclusive: 35.5 µM [rising, single point] | – |
| CC(C)(O)CCc1cccc(C(=O)N(Cc2ccc3c(c2)OCO3)C2CC2)c1 | inactive | – |
| CCN1C(=O)Cc2ccccc2C1C(=O)NCc1ccccc1C (configuration not stated) | inactive | – |
| COc1ccc(CNCc2ccc(C)s2)cc1OCC(O)CN1CCCCC1 (configuration not stated) | inactive | – |
| Cn1cc(CC(=O)N2CCCc3ncc(C(=O)NCC4CCCO4)cc32)c2ccccc21 (configuration not stated) | inconclusive: 35.5 µM [cytotoxic, single point] | – |
| Cc1ccc(S(=O)(=O)N2CCc3cc(C(=O)N(C)Cc4ccccc4)ccc32)cc1 | inconclusive: 28.2 µM [cytotoxic, single point] | – |
| COc1ccc(NC(=O)CSC2=Nc3ccccc3C3=NC(CC(=O)NCc4ccccc4OC)C(=O)N23)cc1Cl (configuration not stated) | inconclusive: 10 µM [cytotoxic, partial curve, poor fit] | – |
| NC(=O)c1cnc(NCCc2ccc(O)c(Cl)c2)nc1NCc1ccccc1 | inconclusive: 9.47 µM [cytotoxic, partial curve, poor fit] | – |
| O=C(CSc1ncc2c(n1)-c1cc(Cl)ccc1N(Cc1ccccc1)S2(=O)=O)Nc1ccc(F)cc1F | inactive | – |
| Cc1ccccc1C(=O)N1CCN(Cc2ccccc2-c2cccnc2)CC1 | – | inactive: 4.21% [at 12.5 µM] |
| Cc1nc(Nc2cnn(C3CCNCC3)c2)nc2c1N(C)C(=O)c1cc3ccccc3cc1N2C | inconclusive: 7.52 µM [cytotoxic, partial curve] | – |
| CC(C)(C)CC(=O)N1CCN(c2nc(-c3ccccc3)nc3c2CCC3)CC1 | inactive | – |
| CC(=O)N1CCC(C2CCN(C(=O)C3CNC3)C2)CC1 (configuration not stated) | – | inactive: 7.21% [at 12.5 µM] |
| COc1cc(NC(=O)CSc2nc(-c3cccs3)cc(C(F)(F)F)n2)cc(OC)c1OC | inconclusive: 1.58 µM [cytotoxic, full curve, poor fit] | – |
| Cc1ccccc1CN1Cc2nc(-c3ccc4c(c3)OCO4)ccc2OCC1=O | inconclusive: 31.6 µM [cytotoxic, single point] | – |
| FC(F)(F)c1ccccc1-c1cc(-c2cccnc2)c2cncn2c1 | inactive | – |
| CCOCCNc1ncnc2c1CN(C1CCCNC1)C(=O)CN2C (configuration not stated) | inactive | – |
| COc1ccc2nc(NC(=O)c3nc(S(=O)(=O)Cc4ccccc4F)ncc3Cl)sc2c1 | inconclusive: 28.2 µM [cytotoxic, partial curve, poor fit] | – |
| CN1C[C@@H](NC(=O)Nc2ccc(Cl)cc2)C[C@H]1c1nc(-c2ccc(F)cc2)no1 | inconclusive: 31.6 µM [cytotoxic, single point] | – |
| COc1ccc(-c2[nH]nc3ncc(-c4ccccc4O)nc23)c(C)c1 | inconclusive: 22.4 µM [cytotoxic, partial curve, poor fit] | – |

| SMILES | Potency | activity change, negative = cytotoxicity |
| --- | --- | --- |
| Cc1nn2c(c1-c1ccccc1OCc1ccccc1)N(CC1CC1)CCC2 | active: 10 µM | – |
| Cc1ccccc1CC(=O)N1CCN(C(=O)c2nnn3c2COC(c2ccccc2)C3)CC1 (configuration not stated) | inactive | – |
| CC1CCN(C(=O)CSc2c3c(nc4ccc(Cl)cc24)CCCC3)CC1 | inconclusive: 39.8 µM [cytotoxic, single point] | – |
| CCC(=O)N1CCc2c(C(=O)Nc3ccc(C)cc3)cccc21 | inactive | – |
| Cc1ccc(-c2nnc(C3CN(C(=O)c4cc(C)cc(C)c4)CC34CCOCC4)o2)cc1 (configuration not stated) | inconclusive: 8.91 µM [cytotoxic, partial curve, poor fit] | – |
| C[S+](=O)([O-])CCn1ncc2cc(OCc3cccc(-c4ccccc4O)c3)ccc21 | inconclusive: 50.1 µM [cytotoxic, partial curve, poor fit] | – |
| N#Cc1c(O)c2c(-c3ccc(-c4ccccc4O)cc3)csc2[nH]c1=O | inactive | – |
| O=C(NCc1ccnc2[nH]ccc12)c1ccncc1 | inconclusive: 15.8 µM [rising, partial curve, poor fit] | – |
| COc1cccc(-c2cn3cc(C(=O)NCc4cccnc4)nc3s2)c1 | inactive | – |
| COCCNc1nc2cc(C(=O)N[C@@H]3CC[C@@H](N)C3)ccc2n1C | inactive | – |
| Cc1ccc(OCCC2CCN(C(=O)CCc3ccccc3)C2)cc1 (configuration not stated) | inactive | – |
| Cc1ccc(-n2ncc(C(=O)NCc3ccccc3)c2C2CCN(C(=O)OC(C)(C)C)CC2)cc1 | inconclusive: 39.8 µM [cytotoxic, partial curve, poor fit] | – |
| COc1ccccc1Nc1c2c(nc3ccc(NC(=O)c4ccc(OC)c(OC)c4)cc13)CCCC2 | inconclusive: 39.8 µM [cytotoxic, single point] | – |
| COCCNC(=O)c1ccc(-n2c(-c3ccccc3)cc3c2CCC(C)C3)cc1 (configuration not stated) | inconclusive: 39.8 µM [cytotoxic, single point] | – |
| Cc1ccccc1CCC1CCCN(CC(=O)N2CCOCC2)C1 (configuration not stated) | inactive | – |
| c1ccc2sc(SSc3nc4ccccc4s3)nc2c1 | – | inactive: 0.587% [at 12.5 µM] |
| COc1ccccc1N(CC(=O)N1CCC(C)CC1)S(=O)(=O)c1ccc(C)cc1 | inconclusive: 10 µM [cytotoxic, partial curve, poor fit] | – |
| Cc1nn(C)cc1C(=O)N1CCC2(CC1)CN(c1ncccn1)CC2CO (configuration not stated) | inconclusive: 7.08 µM [rising, single point] | – |
| O=C(Nc1cc(F)ccc1F)N1CCOc2ccc(CN3CCc4ccccc4C3)cc2C1 | inconclusive: 39.8 µM [cytotoxic, single point] | – |
| O=C(NCCCN1CCOCC1)C1CN(S(=O)(=O)c2ccccc2)CC12CCCCC2 (configuration not stated) | inactive | – |
| O=C(Nc1ccccc1)N1Cc2[nH]cnc2C[C@H]1c1nc(-c2ccc(Cl)cc2)no1 | inconclusive: 15.8 µM [cytotoxic, partial curve] | – |
